{
  "source": "paper PMC4336329",
  "about": "(PLoS ONE, 2015)",
  "note": "In all, about 310,000 compounds went through this assay and about 2,200 (0.71%) showed an effect of 50% or more. The effect is printed as a negative number. Some of the results follow.",
  "data": [
    {"target": "human ether-à-go-go-related gene (hERG) potassium channel (human, UniProt Q12809)", "sequence (Q12809 whole entry, looked up)": "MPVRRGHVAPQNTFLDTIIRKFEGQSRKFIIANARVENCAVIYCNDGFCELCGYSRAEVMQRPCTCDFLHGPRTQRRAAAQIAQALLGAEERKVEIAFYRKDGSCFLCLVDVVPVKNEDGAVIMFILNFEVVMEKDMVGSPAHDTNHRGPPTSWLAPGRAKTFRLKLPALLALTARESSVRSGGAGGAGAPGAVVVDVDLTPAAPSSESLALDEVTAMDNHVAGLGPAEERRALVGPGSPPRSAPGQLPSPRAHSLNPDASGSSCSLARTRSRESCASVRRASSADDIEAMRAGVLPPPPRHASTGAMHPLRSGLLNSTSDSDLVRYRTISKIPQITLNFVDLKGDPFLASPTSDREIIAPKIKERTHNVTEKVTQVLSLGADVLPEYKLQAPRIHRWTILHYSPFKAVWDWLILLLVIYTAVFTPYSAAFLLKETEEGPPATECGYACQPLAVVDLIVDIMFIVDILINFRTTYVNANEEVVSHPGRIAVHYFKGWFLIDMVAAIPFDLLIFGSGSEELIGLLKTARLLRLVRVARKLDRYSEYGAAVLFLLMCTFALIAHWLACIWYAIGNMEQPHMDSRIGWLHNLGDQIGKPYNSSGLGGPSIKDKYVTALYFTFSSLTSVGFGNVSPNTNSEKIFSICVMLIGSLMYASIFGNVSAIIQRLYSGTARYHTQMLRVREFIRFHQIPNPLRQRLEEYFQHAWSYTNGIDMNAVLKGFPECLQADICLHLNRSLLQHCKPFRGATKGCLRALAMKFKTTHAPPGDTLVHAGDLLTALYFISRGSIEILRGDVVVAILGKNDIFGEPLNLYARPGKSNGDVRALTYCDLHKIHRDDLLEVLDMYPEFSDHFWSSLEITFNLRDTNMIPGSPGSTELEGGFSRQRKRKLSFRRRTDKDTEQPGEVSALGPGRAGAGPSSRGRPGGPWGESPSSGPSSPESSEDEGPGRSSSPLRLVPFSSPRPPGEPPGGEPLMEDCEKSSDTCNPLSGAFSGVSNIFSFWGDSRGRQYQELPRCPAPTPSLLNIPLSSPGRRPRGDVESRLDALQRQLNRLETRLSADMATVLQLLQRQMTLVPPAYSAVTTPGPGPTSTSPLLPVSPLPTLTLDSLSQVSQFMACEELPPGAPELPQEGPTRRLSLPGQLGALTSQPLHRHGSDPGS", "test": "primary screen, population patch clamp on CHO cells stably expressing hERG", "units": {"hERG current change (%, negative = inhibition) at 1uM": "%"}, "values": [
      {"molecule": "COc1ccc(NC(=O)CN2CCC(C(N)=O)(N3CCCCC3)CC2)c(OC)c1", "hERG current change (%, negative = inhibition) at 1uM": 5.15},
      {"molecule": "COc1cc(CN2CCCC(C)C2)ccc1OCc1ccccc1", "note": "(stereo not drawn)", "hERG current change (%, negative = inhibition) at 1uM": -1.95},
      {"molecule": "O=C(Nc1nc2c(F)c(F)c(F)cc2s1)c1ccco1", "hERG current change (%, negative = inhibition) at 1uM": 13.2},
      {"molecule": "CC(C)CCSc1nc2[nH]ncc2c(=O)[nH]1", "hERG current change (%, negative = inhibition) at 1uM": 1.31},
      {"molecule": "CSCCC(NC(=O)c1ccccc1)C(=O)Nc1ccc(NC(C)=O)cc1", "note": "(stereo not drawn)", "hERG current change (%, negative = inhibition) at 1uM": 0.138},
      {"molecule": "CCc1ccccc1NC(=O)CNCc1ccccc1.[O-][Cl+3]([O-])([O-])O", "hERG current change (%, negative = inhibition) at 1uM": 14.4},
      {"molecule": "Cc1ccccc1C(=O)O/N=C(\\N)c1ccccc1", "hERG current change (%, negative = inhibition) at 1uM": 14.7},
      {"molecule": "Cc1ccc(CC(=O)Nc2ccc(S(=O)(=O)Nc3ncccn3)cc2)cc1", "hERG current change (%, negative = inhibition) at 1uM": 15.6},
      {"molecule": "COc1cccc(Nc2c(F)c(F)c(F)c(F)c2C(=O)O)c1", "hERG current change (%, negative = inhibition) at 1uM": 2.13},
      {"molecule": "Cc1sc2ncnc(SCC(=O)N(C(C)C)C(C)C)c2c1C", "hERG current change (%, negative = inhibition) at 1uM": -4.12},
      {"molecule": "Cc1ccc(C(=O)Nc2cccc(C(F)(F)F)c2)cc1NC(=O)c1cnnc2ccccc12", "hERG current change (%, negative = inhibition) at 1uM": 8.15},
      {"molecule": "COCCNC(=O)CN(C(=O)Cn1nnc2ccccc21)c1cc(C)cc(C)c1", "hERG current change (%, negative = inhibition) at 1uM": -10},
      {"molecule": "CC/C(C)=N/NC(=S)NCc1ccco1", "hERG current change (%, negative = inhibition) at 1uM": 12},
      {"molecule": "O=c1c(Cl)c(NC2CC2)cnn1-c1ccccc1", "hERG current change (%, negative = inhibition) at 1uM": 3.96},
      {"molecule": "COCCNC(=O)C12CC3CC(C1)CC(c1ccccc1)(C3)C2", "hERG current change (%, negative = inhibition) at 1uM": 14.4},
      {"molecule": "O=C(O)CCN1CCc2ccccc21", "hERG current change (%, negative = inhibition) at 1uM": 9.91},
      {"molecule": "Cc1ccsc1C(=O)C1CCCN(Cc2cc(C(C)C)n[nH]2)C1", "note": "(stereo not drawn)", "hERG current change (%, negative = inhibition) at 1uM": -5.51},
      {"molecule": "Cc1ccc(O)c(N=Cc2cccs2)c1", "hERG current change (%, negative = inhibition) at 1uM": 3.98},
      {"molecule": "Cc1ccc(NS(=O)(=O)c2ccc(C)c(NC(=O)COc3ccc4ccccc4c3)c2)c(C)c1", "hERG current change (%, negative = inhibition) at 1uM": -3.23},
      {"molecule": "COC(=O)C1=C(N)Oc2cc(C)n(CC3CCCO3)c(=O)c2C1c1ccccc1OC", "note": "(stereo not drawn)", "hERG current change (%, negative = inhibition) at 1uM": 4.76},
      {"molecule": "S=c1[nH]c2ccc(Cl)cc2[nH]1", "hERG current change (%, negative = inhibition) at 1uM": 14.3},
      {"molecule": "O=C(CSc1ncn[nH]1)NCCc1ccc(Cl)cc1Cl", "hERG current change (%, negative = inhibition) at 1uM": 12.4},
      {"molecule": "COc1ccc(-c2[nH]ncc2CN(C)C(C)c2ccon2)cc1F", "note": "(stereo not drawn)", "hERG current change (%, negative = inhibition) at 1uM": -4.85},
      {"molecule": "CC1(C)CC(=O)C2=C(C1)NC(=O)CC2c1cc2c(cc1Br)OCO2", "note": "(stereo not drawn)", "hERG current change (%, negative = inhibition) at 1uM": -4.65},
      {"molecule": "COc1ccc(S(=O)(=O)N2CCCC2CNC(=O)C(=O)NCc2cccs2)cc1", "note": "(stereo not drawn)", "hERG current change (%, negative = inhibition) at 1uM": 12.8},
      {"molecule": "CC1CCN(CCCn2c(SCC(=O)Nc3ccccc3Cl)nc3ccccc3c2=O)CC1", "hERG current change (%, negative = inhibition) at 1uM": -34.1},
      {"molecule": "Cc1cc(C)cc(-n2c(C)cc(/C=N/NC(=O)c3ccncc3)c2C)c1", "hERG current change (%, negative = inhibition) at 1uM": 14.3},
      {"molecule": "O=C(O)[C@H]1NC[C@H]2C[C@H]21", "hERG current change (%, negative = inhibition) at 1uM": 11.9},
      {"molecule": "CC1CN(C(=O)c2ccc(S(=O)(=O)Nc3ccccc3F)cc2)CC(C)O1", "note": "(stereo not drawn)", "hERG current change (%, negative = inhibition) at 1uM": 9.45},
      {"molecule": "CC1CN(CC(O)COc2ccc(C(C)C)cc2)CC(C)O1.Cl", "note": "(stereo not drawn)", "hERG current change (%, negative = inhibition) at 1uM": 5.14},
      {"molecule": "COc1cc(/C=N/Nc2nc3ccccc3s2)cc([N+](=O)[O-])c1O", "hERG current change (%, negative = inhibition) at 1uM": 1.77},
      {"molecule": "S=c1[nH]nc(-c2cccnc2)n1C1CCCCC1", "hERG current change (%, negative = inhibition) at 1uM": 14.9},
      {"molecule": "Cc1ccc(NC(=S)N2C3CCCC2CC(NC(=O)C2CC2)C3)cc1C", "note": "(stereo not drawn)", "hERG current change (%, negative = inhibition) at 1uM": 1.33},
      {"molecule": "C/C(CC(=O)Nc1ccc(C)c(Cl)c1)=N\\NC(=O)c1ccccn1", "hERG current change (%, negative = inhibition) at 1uM": 14.1},
      {"molecule": "Cc1ccccc1CN1CCN(CC(=O)NCc2ccccc2)C1=O", "hERG current change (%, negative = inhibition) at 1uM": 2.94},
      {"molecule": "Cc1ccc(/C=C/C2=Cc3c(sc(NC(=O)CSc4n[nH]c(N)n4)c3C#N)C(C)(C)C2)o1", "hERG current change (%, negative = inhibition) at 1uM": 13.5},
      {"molecule": "COc1ccc(-c2cc(=O)oc3cc(OCC(=O)N(C)C)ccc23)cc1", "hERG current change (%, negative = inhibition) at 1uM": 14},
      {"molecule": "O=C(NCCN1CCCC1)c1ccc2c(=O)n(CCc3ccccc3)c(=O)[nH]c2c1", "hERG current change (%, negative = inhibition) at 1uM": 13.3},
      {"molecule": "Cc1ccc(C)n1-c1ccncc1", "hERG current change (%, negative = inhibition) at 1uM": 7.33},
      {"molecule": "CCCCn1c(N)c(N(CC(C)C)C(=O)C2=COCCO2)c(=O)[nH]c1=O", "hERG current change (%, negative = inhibition) at 1uM": 11.4},
      {"molecule": "COC(=O)CCCC1=CC2=CC(=O)C(C)(OC(=O)c3cccs3)C(=O)C2=CN1CCc1ccccn1", "note": "(stereo not drawn)", "hERG current change (%, negative = inhibition) at 1uM": 4.18},
      {"molecule": "CCc1nnc(NC(=O)CCC(=O)N2CCN(c3ccccn3)CC2)s1", "hERG current change (%, negative = inhibition) at 1uM": 5.05},
      {"molecule": "CC1N=C(c2ccccc2Cl)c2cc(Br)ccc2NC1=O", "note": "(stereo not drawn)", "hERG current change (%, negative = inhibition) at 1uM": 3.65},
      {"molecule": "CC(=O)N1CCN(c2ccc(NC(=O)c3ccc(Cl)c(Cl)c3)cc2)CC1", "hERG current change (%, negative = inhibition) at 1uM": 3.47},
      {"molecule": "COc1ccc(Nc2nc(C)cc(C)c2C(N)=O)cc1OC", "hERG current change (%, negative = inhibition) at 1uM": 14.8}
    ]}
  ]
}
